These results are taken from PubChem BioAssay AID1745853 (National Center for Advancing Translational Sciences (NCATS), 2022).

SMILES strings stand for the structures. Several values for one entry are separate records, joined by “and”; a condition that tells them apart may be missing. Identical values can stand only once. Some of the results follow. Shown are side measurements of this screen, not its main read-out; they come without a call.

Common to all, as to test: Primary Screen for Target Class Profiling of Small Molecule Inhibitors of Methyltransferases
Test [1] addresses Glycine N-methyltransferase (Homo sapiens) (UniProt Q14749). Particulars: purified enzyme, MTase-Glo SAH luminescence; measured here: GNMT inhibition; at 40 µM; stronger effect = lower value. The gist of the method: (§1)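 Each enzyme was assayed with SAM and its substrate. SAH formation detected by MTase-Glo luminescence; single-point 40 uM screen[…].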
Test [2] has as its target Guanidinoacetate N-methyltransferase (Homo sapiens) (UniProt Q14353). Conditions: purified enzyme, MTase-Glo SAH luminescence; measured here: GAMT inhibition; at 40 µM; stronger effect = lower value. The gist of the method: as §1
Test [3] concerns the target Histamine N-methyltransferase (Homo sapiens) (UniProt P50135). Conditions: purified enzyme, MTase-Glo SAH luminescence; measured here: HNMT inhibition; at 40 µM; stronger effect = lower value. An outline of the steps: as §1
Test [4] deals with Nicotinamide N-methyltransferase (Homo sapiens) (UniProt P40261). Particulars: purified enzyme, MTase-Glo SAH luminescence; measured here: NNMT inhibition; at 40 µM; stronger effect = lower value. The gist of the method:
as §1

Test [5] concerns the target Phenylethanolamine N-methyltransferase (Homo sapiens) (UniProt P11086). Conditions: purified enzyme, MTase-Glo SAH luminescence; measured here: PNMT inhibition; at 40 µM; stronger effect = lower value. The gist of the method:
as §1
% is scaled to controls: 0 for no effect and ±100 for the full control effect.

With `CC(C)C1(O[C@@H]2O[C@H](CO)[C@@H](O)[C@H](O)[C@H]2O)CC=C(CO)CC1` (stereo partly drawn), the activity change, negative = inhibition in test [1] is -2.73%; in test [2], -5.5%; in test [3] it was 3.35%; in test [4], -13.8%; in test [5], -13.4%.
For `COc1ccc(CNC(=O)O[C@H]2COCCN(c3nc4ccccc4o3)C2)cc1`, in that order: -9.87%, -8.85%, -6.23%, -15.8% and -9.21%.
For `O=C(NOCC(O)CO)c1ccc(F)c(F)c1Nc1ccc(I)cc1F` (stereo not drawn), in that order: -3.58%, 3.9%, 11.8%, -15.4% and 5.75%.
For `CCOC(=O)c1cc2n(n1)CC(C)(C(=O)NCc1ccc(F)cc1)N(Cc1cccc(OC)c1)C2=O` (stereo not drawn), the activity change, negative = inhibition in test [1] is -6.68%; in test [2] it was 0.756%; in test [3] it was -3.63%; in test [4], -8.44%; in test [5], -8.47%.
The matching figures for `O=C(NCCCc1ccccc1)C1CCN(c2cc(C(F)(F)F)ncn2)CC1`: -6.59%, -7.63%, -2.85%, -11.1% and -7.89%.
For `O=C(c1ccc(F)cc1)N1CCN(c2nc3ncccc3o2)CC1`, in that order: -8.38%, -12.2%, -4.54%, -18.2% and -12.6%.
For the compound `COc1cccc(N2CCN(c3ccc4nnc(CCC(=O)NCCCOC(C)C)n4n3)CC2)c1`, the activity change, negative = inhibition is 5.36% in test [1]; 0% in test [2]; -0.618% in test [3]; 1.28% in test [4]; 4.44% in test [5].
As for `OCC1(O)CCCN(Cc2cnc(NCc3ccccc3)nc2)C1` (stereo not drawn), the activity change, negative = inhibition in test [1] is 0.141%; in test [2] it was 1.62%; in test [3], 1.86%; in test [4], -1.74%; in test [5], 2.68%.
In the case of `Clc1ccccc1C1Nc2ccc3ccccc3c2C2C=CCC21` (stereo not drawn), the activity change, negative = inhibition is 9.44% in test [1]; -4.8% in test [2]; -6.13% in test [3]; -3.04% in test [4]; -11.4% in test [5].
The matching figures for `O=C(Cn1ccc2cc(S(=O)(=O)N3CCCCC3)ccc21)N1CCCCC1`: 4.52%, 3.72%, 7.34%, 7.09% and 3.75%.
The matching figures for `CC(C)OCCCn1c(=O)c2ccccc2n2c(SCC(=O)Nc3ccc(Cl)cc3)nnc12`: -2.28%, 4.39%, 2.92%, -2% and -0.183%.
The matching figures for `Cc1ccc(C)c(Cn2nc3n(C(C)C)c(=O)c4ccc(C(=O)NC5CCCC5)cc4n3c2=O)c1`: -3.17%, -0.487%, 0.246%, -3.85% and -0.937%.
For the compound `CC(=O)Nc1c2n(c3ccc(F)cc13)CC(C)(C(=O)NCCC(C)C)N(C1CCCCC1)C2=O` (stereo not drawn), the activity change, negative = inhibition was -4.81% in test [1]; 3.08% in test [2]; 0.206% in test [3]; -1.83% in test [4]; -2.58% in test [5].
The matching figures for `CC(C)n1c(=O)c2ccc(C(=O)NC3CCCC3)cc2n2c(=O)n(CC(=O)N(C)c3ccccc3)nc12`: 2.41%, 0%, 9.03%, -3.62% and 1.66%.
For `O=c1cc(-c2cccc(O)c2)oc2c(O)c(O)ccc12`, the values for the activity change, negative = inhibition in test [2], in test [4] and in test [5] were -1.74%, -8.91% and 5.44%, respectively.
Take `CCOC(=O)c1cc2n(n1)CC(C)(C(=O)NC1CCC(C)CC1)N(Cc1ccc(CC)cc1)C2=O` (stereo not drawn): the activity change, negative = inhibition in test [1] was -0.544%; in test [2], 3.55%; in test [3] it was 1.18%; in test [4] it was -8.05%; in test [5] it was -2.4%.
The matching figures for `COCc1nc(C2CC(N)C2)cc(N(C)Cc2noc3c2CCCC3)n1` (stereo not drawn): -4.47%, -4.92%, -3.45%, -15% and -4.81%.
The matching figures for `COc1ccc2c(NC(=O)Nc3cccc(C(F)(F)F)n3)ccnc2c1`: -10.2%, -1.92%, -28.5%, -25.7% and -11.5%.
For `COc1ccc(N2C(=O)c3cc4sccc4n3CC2(C)C(=O)NC2CCCCCC2)cc1OC` (stereo not drawn), in that order: 2.08%, 0.182%, 7.91%, -5.43% and 2.03%.
Regarding `Cc1cccc(N2CCN(CCNC(=O)CCc3nnc4n(CC(C)C)c(=O)c5ccccc5n34)CC2)c1C`, the activity change, negative = inhibition was -1.31% in test [1]; 2.73% in test [2]; 11.8% in test [3]; 12.6% in test [4]; 4.76% in test [5].
For `Cc1ccc(CNC(=O)Cn2nc3n(CC(C)C)c(=O)c4ccc(C(=O)NC(C)C)cc4n3c2=O)cc1`, in that order: 3.33%, 0%, 5.85%, 1.21% and -0.109%.
For `Cc1ccc(Cn2c(=O)c3ccccc3n3c(-c4ccccc4O)nnc23)cc1`, in that order: -8.86%, -0.488%, -0.509%, -7.15% and -12.7%.
The matching figures for `CC(=O)OC(C)C[N+](C)(C)C` (stereo not drawn): 4.06%, 11.3%, 10.6%, -4.27% and 2.52%.
With `C=C(C)[C@@H](C)[C@H]1O[C@]23C[C@]4(CO2)C(CCC2[C@@]5(C)CC[C@H](O[C@@H]6OC[C@H](O)[C@H](O[C@@H]7O[C@H](CO)[C@@H](O)[C@H](O)[C@H]7O)[C@H]6O[C@@H]6O[C@@H](CO)[C@H](O)[C@H]6O)C(C)(C)C5CC[C@]24C)C3[C@@](C)(O)[C@@H]1OC(C)=O` (stereo partly drawn), the activity change, negative = inhibition in test [1] is 4.83%; in test [2] it was 10.1%; in test [3] it was 8.09%; in test [4], -1.27%; in test [5], 6.59%.
As for `CN(C)c1ccc(/C=C2\C(=O)Nc3ccccc32)cc1`, the activity change, negative = inhibition in test [1] was -17.5% and -15.7%; in test [2], 7.29% and 4.59%; in test [3], 2.23% and -0.232%; in test [4], -106% and -85.6% and -76.7%; in test [5], 24.8% and -9.87% and -8.79%.
For `O[C@@H]1CN(CC2CC2)CC[C@H]1N1CCN(c2ccccc2F)CC1`, the activity change, negative = inhibition was -6.14% in test [1]; -10.9% in test [2]; -4.22% in test [3]; -14.5% in test [4]; -10% in test [5].
For `CC(C)Cc1nc(NC(=O)C[C@H]2NC(=O)c3ccccc3NC2=O)n[nH]1`, in that order: -5.19%, -2.74%, -1.32%, -3.37% and -9.42%.
For `Cc1ccc(N2C(=O)c3cc4sccc4n3CC2(C)C(=O)NC2CCCCCCC2)cc1C` (stereo not drawn), in that order: -1.61%, 0%, 6.72%, -3.24% and -0.205%.
The matching figures for `C=CCc1ccccc1OCC(O)CNC(C)C` (stereo not drawn): -11.1%, -0.832%, -3.74%, -12% and -0.137%.
As to `COC(=O)c1ncn2c1C(=O)N(Cc1ccccc1Cl)C(C)(C(=O)NC1CCCCC1)C2` (stereo not drawn), the activity change, negative = inhibition was determined as 4.96% in test [1]; 4.7% in test [2]; 4.68% in test [3]; 7.05% in test [4]; 3.5% in test [5].
